Drawing on PubChem BioAssay AID1346428 (National Center for Advancing Translational Sciences (NCATS), 2018), this text covers activation for 81 molecules.

Hit rate of the full screen: of about 48,000 compounds, about 1,200 (2.5%) were called active. Inconclusive results (about 2%) are left out.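 The calls were made as follows: active = activation of at least 60% and not above a set upper limit (about 1 call in 100 departs from these limits); inconclusive = activation of 40% to 60%, or above that upper limit; inactive = activation under 40%.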 Some of the results follow.

UniProt O75388, sequence (O75388 whole entry, looked up): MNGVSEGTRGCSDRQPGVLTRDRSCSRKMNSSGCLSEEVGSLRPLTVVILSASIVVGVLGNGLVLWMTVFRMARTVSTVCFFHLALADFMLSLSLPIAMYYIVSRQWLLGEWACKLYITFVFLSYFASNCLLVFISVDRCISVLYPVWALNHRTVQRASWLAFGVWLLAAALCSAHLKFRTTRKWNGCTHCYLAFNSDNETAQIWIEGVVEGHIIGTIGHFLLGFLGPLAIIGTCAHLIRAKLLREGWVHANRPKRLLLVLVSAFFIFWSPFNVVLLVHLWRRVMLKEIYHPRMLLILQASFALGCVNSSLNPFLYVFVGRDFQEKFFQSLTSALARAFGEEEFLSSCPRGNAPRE

The target in the assay is Probable G-protein coupled receptor 32 (Homo sapiens) (UniProt O75388). The experiment in a line: qHTS for Agonists of Human Resolvin D1 Receptor DRV1. Also: 0% is about no effect. To be noted: CHO-K1 GPR32 beta-arrestin PathHunter luminescence, 90 min; at 76.9 µM; active compounds read high; zero percent set by DMSO-only wells. An outline of the steps:
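Engineered CHO-K1 line co-expressing GPR32-ProLink and EA-beta-arrestin. Compound treatment lasted 90 min at 37 °C. Luminescence was recorded after 1 h with substrate at ambient temperature, relative to DMSO basal wells.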
Turning to `CCOC(=O)c1c(-c2ccc(OC)c(OC)c2)csc1NC(=O)c1ccc(C)cc1`, the activation was inactive: 26.5%.
Next, `CCCCNc1oc(-c2ccc(COc3ccccc3C)o2)nc1C#N`: inactive: -17.9%; `COC(=O)c1ccc(NC(=O)C(=O)NCC(c2cccnc2)N2CCN(c3ccccc3)CC2)cc1` (stereo unspecified): inactive: -9.64%.
The result for `CCOC(=O)c1cc(-c2ccccc2)n(CCC(=O)NCCc2cccc(C)c2)c1C` reads inactive: -31.1%; that for `COc1ccc(S(=O)(=O)NCCc2sc3nc(-c4ccc(C)cc4)nn3c2C)cc1C`, inactive: -9.25%; that for `COc1ccc(S(=O)(=O)N(CC(=O)NCCSc2ccccc2)c2ccc(C)cc2)cc1`, inactive: -9.99%.
The result for `CC(=O)c1cccc(NC(=O)Cc2ccc(NC(=O)N3CCCCc4ccccc43)cc2)c1` reads inactive: -2.44%; that for `Cc1oc(-c2ccc(Cl)cc2)nc1CS(=O)CC(=O)NCCc1ccccc1` (stereo unspecified), inactive: -0.66%; that for `Cc1ccc(Nc2c3c(nc4nc(-c5cccs5)nn24)CCCC3)cc1F`, inactive: -23.8%.
As for `COc1ccc(N2C(=O)CSC23C(=O)N(Cc2cccc(C(F)(F)F)c2)c2ccccc23)cc1` (stereo unspecified), the activation is inactive: -5.97%.
The result for `CCOc1ccc2oc(=O)cc(CN3CCN(Cc4ccc(C)cc4)CC3)c2c1` reads inactive: -12.6%.
Next, `CCN(CC)CC(=O)OCC(=O)[C@@]1(O)CC[C@H]2[C@@H]3CCC4=CC(=O)CC[C@]4(C)[C@H]3[C@@H](O)C[C@@]21C`: inactive: 8.8%; `COc1ccccc1OCC(=O)N(Cc1cccs1)C1CCS(=O)(=O)C1` (stereo unspecified): inactive: -8.71%.
Next, `Cc1ccc(S(=O)(=O)c2nc(-c3cccs3)oc2SCC(=O)Nc2cc(C)cc(C)c2)cc1`: inactive: -22.3%; `COc1ccc(S(=O)(=O)NC(C)(C)C)cc1-c1nnc2c3ccccc3c(C)nn12`: inactive: -7.63%.
With `COc1ccccc1CNc1nc(-c2ccco2)nn1S(C)(=O)=O`, the activation is inactive: -23.9%.
Next, `Cc1cccc(Cn2c(=O)n(CCCC(=O)NCc3ccccc3Cl)c(=O)c3ccccc32)c1`: inactive: -10.4%; `CCOC(=O)Cn1nc(C)c(NC(=O)COc2ccccc2)c1C`: inactive: 2.85%.
For `COc1cc(OC)c(NS(=O)(=O)c2c(C(=O)N3CCCCCC3)c(C)n(C)c2C)cc1Cl`, the activation is inactive: -6.31%.
Next, `Cc1cc(-c2ccc(C)c(S(=O)(=O)Nc3ccccn3)c2)on1`: inactive: -1.48%.
The result for `COc1ccc(-n2cc(-c3ccccc3)nc2SCC(=O)Nc2ccccc2C)cc1` reads inactive: -26.5%.
Next, `Cc1ccc(CNc2nc3ccc(Cl)cc3n3nnnc23)cc1`: inactive: -0.656%; `CCOC(=O)N1CCc2c(sc(NCc3cccc(F)c3)c2C(=O)Nc2ccc(OC)cc2)C1`: inactive: -0.22%.
Consider `COC(=O)CC1Oc2ccc(F)cc2-n2cc(-c3ccc(C)cc3)nc21` (stereo unspecified), for which the activation is inactive: 8.94%.
Take `COc1cc(NC(=O)CCn2c(=O)oc3ccccc32)cc(OC)c1OC`: the activation was inactive: 5.7%.
Next, `CSc1ccc(NC(=O)C2CCN(c3ncccn3)CC2)cc1`: inactive: 3.74%; `CCN1CCN(c2ncc3c(n2)CCN(CC(C)C)C3)CC1`: inactive: -12%; `COc1ccc(N(Cc2cccs2)C(=O)COc2cccc(C)c2C)cc1`: inactive: -17.4%.
Next, `Cc1cccc(CC(=O)N2CC(=O)Nc3ccc(C)cc3C2c2ccc(F)cc2)c1` (stereo unspecified): inactive: -26.3%.
For the molecule `CCOc1ccc(-n2ccnc2SCC(=O)Nc2cccc3ccccc23)cc1`, the activation is inactive: -7.89%.
With `COc1ccc(Br)cc1CNC(=O)c1ccc2nc(C(C)C)oc2c1`, the activation is inactive: -11.1%.
Next, `NC(=O)NS(=O)(=O)c1ccc(Cl)cc1`: inactive: 39.6%; `Cc1cc(S(=O)(=O)Nc2ccc3oc4c(c3c2)CCCC4)ccc1Cl`: inactive: 49.3%; `O=C1CN(C(=O)Cc2ccccc2)C(c2ccc(F)cc2)c2cc(Br)ccc2N1` (stereo unspecified): inactive: -27.5%.
The result for `CCOc1ccc(CCNCc2c(C(=O)O)c(C)n(Cc3ccccc3F)c2C)cc1` reads inactive: -21.5%; that for `Cc1ccc(S(=O)(=O)N2CCc3cc(C(=O)Nc4ccc(Cl)cc4C)ccc32)cc1`, inactive: 12.9%.
The result for `CCCc1nn2c(=O)cc(COC(=O)c3ccc(NC(=O)COc4ccccc4F)cc3)nc2s1` reads inactive: -10.2%.
With `COc1ccc(NS(=O)(=O)c2ccc3c(c2)[C@H]2C=CC[C@H]2[C@@H](c2ccc(C(=O)O)cc2)N3)cc1`, the activation was inactive: -9.57%.
Next, `Cc1noc(-c2ccc(-c3noc(-c4ccc([N+](=O)[O-])c(C)c4)n3)cc2)n1`: inactive: -4.25%; `CC(C)c1ccc(N2C(=O)N(Cc3cccc([N+](=O)[O-])c3)c3ccccc3S2(=O)=O)cc1`: inactive: -15.7%; `CCOc1ccc(NC(=O)[C@@H](c2ccccc2)N2Cc3ccccc3C2=O)cc1`: inactive: -21.4%.
As for `Cc1cccn2c(=O)c(C(=O)N3CCN(c4ccc(Cl)cc4)CC3)cnc12`, the activation was inactive: 0.74%.
Turning to `COc1cc(C2C(C(=O)Nc3ccccc3C)=C(C)Nc3nc(SCc4cc(C)ccc4C)nn32)ccc1O` (stereo unspecified), the activation is inactive: -26.1%.
The result for `CCN(CC)c1ccc(NC(=O)CCc2c(C)nc3ncnn3c2C)c(C)c1` reads inactive: -2.71%; that for `O=S(=O)(NCCc1csc2nc(-c3ccccc3)nn12)c1ccc(Oc2ccccc2)cc1`, inactive: 2.36%.
Next, `Cc1ccc(-n2nnnc2CNC(=O)C2CC(=O)N(c3ccccc3)C2)cc1C` (stereo unspecified): inactive: -1.65%; `CCOC(=O)c1cc2c(=O)n3ccccc3nc2n(Cc2ccco2)c1=NC(=O)c1cccc(Br)c1`: inactive: -20.5%; `Cc1ccc(Cl)cc1N1CCN(C(=O)c2noc3c2CCCC3)CC1`: inactive: -22%.
For the molecule `COc1ccc(Cl)cc1NC(=O)Cn1nnc2sc(-c3ccccc3)cc2c1=O`, the activation is inactive: 2.86%.
As to `COc1ccc(-c2cc(C(=O)Nc3cc(C)nn3-c3ccccc3)no2)cc1OC`, the activation was inactive: -12.2%.
Next, `CCCCSc1nc(-c2cccc(OC)c2)nc2c1Cc1c(CO)cnc(C)c1O2`: inactive: 14.1%; `COc1c2occc2c(OC)c2c(=O)cc(C)oc12`: inactive: 5.2%; `CC1(C)S[C@@H]2[C@H](NC(=O)Cc3ccccc3)C(=O)N2[C@H]1C(=O)O` (tested in a mixture with another compound): inactive: -0.751%.
The result for `CC1CCCCN1C(=O)CN1CCSc2ccccc21` (stereo unspecified) reads inactive: 2.64%; that for `CCC(=O)Nc1ccc(CC)cc1-c1nc2ccccc2n(CC(=O)c2ccc(OC)cc2)c1=O`, inactive: -8.99%.
Next, `CC(C)C[C@H](NC(=O)CNC(=O)[C@H](Cc1ccc(O)cc1)NC(=O)[C@H](CO)NC(=O)[C@H](Cc1c[nH]c2ccccc12)NC(=O)[C@H](Cc1cnc[nH]1)NC(=O)[C@@H]1CCC(=O)N1)C(=O)N[C@@H](CCCN=C(N)N)C(=O)N1CCC[C@H]1C(=O)NCC(N)=O` (stereo in doubt): inactive: 13.5%; `Cc1c(Cl)cccc1NC(=O)c1oc2ccc(S(=O)(=O)N3CCC4(CC3)OCCO4)cc2c1C`: inactive: 35.3%.
In the case of `O=S(=O)(NCc1ccc(F)cc1)c1ccc2[nH]c3c(c2c1)CCCC3`, the activation is active: 118%.
In the case of `CCc1nonc1NC(=O)c1oc2cc(C)c(C)cc2c1C`, the activation is inactive: 41.9%.
Next, `Cc1ccc(-c2cc(NC(=O)c3cccc(C)c3)on2)cc1`: inactive: 39.4%; `COc1ccc(C(=O)Oc2ccc(C(c3c(C)[nH][nH]c3=O)c3c(C)[nH][nH]c3=O)cc2)cc1`: inactive: -31%.
The result for `COc1ccc(NC(=O)C2Cc3ccccc3CN2S(=O)(=O)c2ccccc2)cc1OC` (stereo unspecified) reads inactive: -7%.
The result for `CCc1cccc(-n2c(=O)c3cccnc3n2CC(=O)Nc2ccc(OC)c(Cl)c2)c1` reads inactive: -5.98%; that for `CCc1ccccc1NC(=O)CCCn1c(=O)c2cccn2c2ccccc21`, inactive: -22.4%; that for `COc1cccc(-n2c(SCC(N)=O)nc3c(oc4ccccc43)c2=O)c1`, inactive: -15.2%.
Turning to `COc1cccc(CNC(=O)c2cc(=O)[nH]c3ccc(S(=O)(=O)N4CCCC4)cc23)c1`, the activation is inactive: 43.8%.
The result for `Cc1ccccc1NC(=O)CCn1nc(-c2ccc(Cl)cc2)c2ccccc2c1=O` reads inactive: -14.7%; that for `COc1ccc(CNC(=O)CC2Oc3ccc(C)cc3NC2=O)cc1` (stereo unspecified), inactive: -7.56%.
The result for `COc1cccc(CC(=O)Nc2ccc3nc(Nc4cccc(C(F)(F)F)c4)cc(C)c3c2)c1` reads inactive: 28.8%; that for `COC(=O)c1cc2oc3ccccc3c2n1CC(=O)Nc1ccc(F)c(Cl)c1`, inactive: -16.1%; that for `Cc1ccc(S(=O)(=O)N2CCc3cc(C(=O)Nc4c(C)cccc4C(C)C)ccc32)cc1`, inactive: 2.41%.
As to `Cc1cccc(Cn2c(CN3CCCC(C)C3)nc3c2c(=O)n(C)c(=O)n3C)c1` (stereo unspecified), the activation was inactive: -13.8%.
Next, `CCOc1ccc(CCNC(=O)c2nn(C)c3c2CSc2ccc(C)cc2-3)cc1OCC`: inactive: -18.5%.
Next, `COc1ccc(CCNc2nc(SCc3cccc(Cl)c3)nc3ccccc23)cc1OC`: inactive: -15.9%.
Take `COCCCNC(=O)c1ccc(-n2c(-c3ccccc3)cc3c2CCCCC3)cc1`: the activation is inactive: -15.9%.
The result for `CC[C@H](C)C(=O)O[C@H]1CCC=C2C=C[C@H](C)[C@H](CC[C@@H]3C[C@@H](O)CC(=O)O3)[C@H]21` reads inactive: -18.7%; that for `O=C(NCc1ccccc1)c1nc(-c2ccc(Cl)cc2)n2c1CCCCC2`, inactive: -17.2%; that for `CCc1nonc1NC(=O)c1oc2ccc(Cl)cc2c1C`, inactive: -3.31%.
The result for `CCOC(=O)c1c(NC(=O)CSc2cn(CCNC(=O)c3ccc(OCC)cc3)c3ccccc23)sc2c1CCC2` reads inactive: 14.2%; that for `Cc1ccc(Cl)cc1NC(=O)Cn1c(SCC(=O)NCc2ccccc2)nc2ccccc21`, inactive: -1.85%.
The result for `Clc1ccc2nc(-c3cccs3)c(Nc3ccc4c(c3)OCCO4)n2c1` reads inactive: -15.2%.
